The supplement of paper PMC8007513
Counter-ions that a name gives are not always drawn. ± gives the standard error. About 75 (6%) of roughly 1,300 compounds showed an effect of 50% or more. Some of the results follow.

Tested on: Trichoderma virens ATCC 9645
Test: growth yield (OD600) relative to untreated control; higher = less growth inhibition
Details: compound concentration: 100 uM
Summary of the method: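 For each 96-well plate, 100 μl aliquots were prepared with Trichoderma virens ATCC 9645 spores suspended at 15,000 spores ml^−1 in potato dextrose broth. The spores had been harvested from potato dextrose agar plates after 7 days. Library compounds were present at 100 μM final, some wells also receiving a biocide at 200 ng ml^−1, and plates were grown at 30 °C with OD600 read on a BioTek EL800 at 40 h and 72 h. Reported growth, relative to the control lacking both agents, is the mean of duplicate screens.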

Structure (SMILES)	growth yield (40 h) [%]	growth yield (72 h) [%]
CCOc1nc2cccc(C(=O)O)c2n1Cc1ccc(-c2ccccc2-c2nnn[nH]2)cc1 [Candesartan]	103 ± 6.3	107 ± 7.1
C[C@@](Cc1ccc(O)c(O)c1)(NN)C(=O)O [Carbidopa]	97.4 ± 4.3	99.2 ± 2.1
Nc1ncnc2c1ncn2[C@@H]1O[C@H](CO)[C@@H](O)[C@@H]1O [Vidarabine]	104 ± 3.2	100 ± 1.7
CC(=O)OC[C@H]1O[C@@H]([S-])[C@H](OC(C)=O)[C@@H](OC(C)=O)[C@@H]1OC(C)=O.CCP(CC)CC.[Au+] [Auranofin]	25.6 ± 2.1	33 ± 2
CCCCc1oc2ccc(NS(C)(=O)=O)cc2c1C(=O)c1ccc(OCCCN(CCCC)CCCC)cc1 [Dronedarone hydrochloride]	6.19 ± 1.8	1.99 ± 0.52
CCC1(c2ccccc2)C(=O)NCNC1=O [Primidone]	98.8 ± 3.8	98.1 ± 1.4
CN(C)CCC(c1ccc(Br)cc1)c1ccccn1 (stereo not drawn) [Brompheniramine maleate]	98.5 ± 5.1	101 ± 5.2
O=C1CC[C@@H](C(=O)N2CSC[C@H]2C(=O)O)N1 [Pidotimod]	96.42 ± 0.16	97.12 ± 0.21
Oc1c(Cl)cc(Cl)c2cccnc12 [Chloroxine]	1.27 ± 0.32	1.36 ± 0.32
c1ccc(-c2ccc(C(c3ccccc3)n3ccnc3)cc2)cc1 (stereo not drawn) [Bifonazole]	2.86 ± 1.9	1.99 ± 0.94
C[C@]12CC[C@@H]3c4ccc(O)cc4C[C@@H](CCCCCCCCC[S+]([O-])CCCC(F)(F)C(F)(F)F)[C@H]3[C@@H]1CC[C@@H]2O (stereo partly drawn) [Fulvestrant]	104 ± 4	106 ± 5
CO/N=C(\C(=O)N[C@@H]1C(=O)N2C(C(=O)O)=C(COC(C)=O)CS[C@H]12)c1csc(N)n1 [Cefotaxime sodium salt]	99.6 ± 3.6	101 ± 2.5
CCCCOc1cc(C(=O)OCCN(CC)CC)ccc1N [Benoxinate hydrochloride]	103 ± 3	103 ± 1.1
Clc1ccc2nsnc2c1NC1=NCCN1 [Tizanidine hydrochloride]	99.91 ± 0.48	99.3 ± 2
Cc1cc2cc3c(C)cc(=O)oc3c(C)c2o1 [Trioxsalen]	42.1 ± 0.48	73.7 ± 4.5
CC(=O)Nc1nnc(S(N)(=O)=O)s1 [Acetazolamide]	108 ± 6.3	104 ± 5.3
CC(C)Oc1ccc2c(=O)c(-c3ccccc3)coc2c1 [Ipriflavone]	87 ± 3.2	89.5 ± 1.8
CNCC(O)c1ccc(O)c(O)c1 (stereo not drawn) [Racepinephrine hydrochloride]	95.6 ± 3.8	89.1 ± 5
CCOC1O[C@H]([C@@H](COCc2ccccc2)OCc2ccccc2)[C@H](OCc2ccccc2)[C@H]1O (stereo partly drawn) [Tribenoside]	90.2 ± 6	87.2 ± 6.2
CC(=O)Nc1c(I)c(C(=O)N[C@H]2C(O)O[C@H](CO)[C@@H](O)[C@@H]2O)c(I)c(N(C)C(C)=O)c1I (stereo partly drawn) [Metrizamide]	102 ± 13	105 ± 12
CCN(CC)CCNC(=O)c1ccc(N)cc1 [Procainamide hydrochloride]	102.5 ± 0.48	105 ± 1.8
CC[C@H]1OC(=O)[C@H](C)[C@@H](O[C@H]2C[C@@](C)(OC)[C@@H](O)[C@H](C)O2)[C@H](C)[C@@H](O[C@@H]2O[C@H](C)C[C@H](N(C)C)[C@H]2O)[C@](C)(O)C[C@@H](C)CN(C)[C@H](C)[C@@H](O)[C@]1(C)O [Azithromycin]	99.43 ± 0.32	96.2 ± 1.1
C[C@@H]1CCC[C@H](C)N1NC(=O)c1ccc(Cl)c(S(N)(=O)=O)c1 [Clopamide]	99.6 ± 1.8	103 ± 3

Structure (SMILES)	growth yield (40 h) [%]	growth yield (72 h) [%]
CN[C@H]1CC[C@@H](c2ccc(Cl)c(Cl)c2)c2ccccc21 [Sertraline]	101 ± 1.9	117 ± 2.4
CC(CNC1CCCCC1)OC(=O)c1ccccc1 (stereo not drawn) [Hexylcaine hydrochloride]	107 ± 5.2	101 ± 4
Nc1ccc(S(=O)(=O)Nc2nccs2)cc1 [Sulfathiazole]	104 ± 3.8	102 ± 4.5
Cc1ccc(-c2cc(C(F)(F)F)nn2-c2ccc(S(N)(=O)=O)cc2)cc1 [Celecoxib]	89 ± 1.9	90.5 ± 2.2
CCOC(=O)/C=C(C)/C=C/C=C(C)/C=C/c1c(C)cc(OC)c(C)c1C [Etretinate]	110 ± 6.3	107 ± 5.5
NC[C@H]1O[C@H](O[C@H]2[C@H](O)[C@@H](O[C@H]3O[C@H](CO)[C@@H](O)[C@H](N)[C@H]3O)[C@H](N)C[C@@H]2N)[C@H](N)C[C@@H]1O [Tobramycin]	105 ± 2.9	103.4 ± 0.42
C=CCOc1ccccc1OCC(O)CNC(C)C (stereo not drawn) [Oxprenolol hydrochloride]	118 ± 5.1	111 ± 4.5
Cc1c(N)c(=O)n(-c2ccccc2)n1C [Ampyrone]	96.6 ± 1.3	97.43 ± 0.73
CCN(CC)C(=O)C1(c2ccccc2)CC1CN (stereo not drawn) [Milnacipran hydrochloride]	93.4 ± 3.5	90.5 ± 3.9
Cc1cc(C(C)(C)C)cc(C)c1CC1=NCCN1 [Xylometazoline hydrochloride]	102.6 ± 0.95	104 ± 1.3
CCN(CCCCOC(=O)c1ccc(OC)c(OC)c1)C(C)Cc1ccc(OC)cc1 (stereo not drawn) [Mebeverine hydrochloride]	104.8 ± 0.64	104 ± 1.1
O=P(O)(O)C(O)(Cn1ccnc1)P(=O)(O)O [Zoledronic acid hydrate]	108 ± 4.5	109 ± 1.6
CCN(CC)CCOCCOC(=O)C1(c2ccccc2)CCCC1 [Carbetapentane citrate]	95.5 ± 1.4	97.5 ± 2.5
CCN(CC)C(=O)Nc1ccc(OCC(O)CNC(C)(C)C)c(C(C)=O)c1 (stereo not drawn) [Celiprolol hydrochloride]	103 ± 6.7	104 ± 6.4
CCCCC1C(=O)N(c2ccccc2)N(c2ccc(O)cc2)C1=O (stereo not drawn) [Oxyphenbutazone]	117 ± 3.6	111.8 ± 0.21
N[C@H]1CONC1=O [(S)-(-)-Cycloserine]	104 ± 3.3	96.8 ± 3
COc1cc2nc(N3CCN(C(=O)C4COc5ccccc5O4)CC3)nc(N)c2cc1OC (stereo not drawn) [Doxazosin mesylate]	97.7 ± 5.2	103 ± 8.9
CCCOc1ccccc1-c1nc2[nH]nnc2c(=O)[nH]1 [Zaprinast]	99.1	106 ± 1.1
CCCCCCNC(=O)n1cc(F)c(=O)[nH]c1=O [Carmofur]	16.4 ± 0.48	33.1 ± 5.5
COc1ccc(Cl)cc1C(=O)NCCc1ccc(S(=O)(=O)NC(=O)NC2CCCCC2)cc1 [Glibenclamide]	102 ± 1.9	111 ± 1.5
Nc1nc(=O)n([C@@H]2CS[C@H](CO)O2)cc1F [(-)-Emtricitabine]	102.6 ± 0.32	102 ± 1.1
CC#C[C@]1(O)CC[C@H]2[C@@H]3CCC4=CC(=O)CCC4=C3[C@@H](c3ccc(N(C)C)cc3)C[C@@]21C [Mifepristone]	101 ± 3.6	100 ± 4.5
CC(C(O)c1ccc(O)cc1)N1CCC(Cc2ccccc2)CC1 (stereo not drawn) [Ifenprodil tartrate]	96.42 ± 0.79	95.65 ± 0.63

Structure (SMILES)	growth yield (40 h) [%]	growth yield (72 h) [%]
CC(C)[C@H](N)C(=O)OCCOCn1cnc2c(=O)nc(N)[nH]c21 [Valacyclovir hydrochloride]	102	103
CN1CCN2c3ncccc3Cc3ccccc3C2C1 (stereo not drawn) [Mirtazapine]	110 ± 1.9	113.2 ± 0.52
CN(C(=O)CN(CCO)CC(=O)N(C)C(C)(C)Cc1ccccc1)C(C)(C)Cc1ccccc1 [Oxethazaine]	91.8 ± 1.3	105 ± 1.9
COC(=O)N/N=C/c1c[n+]([O-])c2ccccc2[n+]1[O-] [Carbadox]	93.6 ± 1.4	94.1 ± 1.1
CC1(C)O[C@@H]2C[C@H]3[C@@H]4C[C@H](F)C5=CC(=O)C=C[C@]5(C)[C@@]4(F)[C@@H](O)C[C@]3(C)[C@]2(C(=O)CO)O1 [Fluocinolone acetonide]	105 ± 2.2	102 ± 1.1
COc1cc(NS(=O)(=O)c2ccc(N)cc2)ncn1 [Sulfamonomethoxine]	92.92 ± 0.48	97.75 ± 0.42
Cc1cc(C)nc(NS(=O)(=O)c2ccc(N)cc2)n1 [Sulfamethazine sodium salt]	106 ± 4.5	101 ± 2.2
NCCc1ccc(O)c(O)c1 [Dopamine hydrochloride]	103 ± 2.4	99.8 ± 1.7
CN(Cc1cc(Br)cc(Br)c1N)C1CCCCC1 [Bromhexine hydrochloride]	99 ± 1.1	98.2 ± 1.9
C[C@H](CS)C(=O)N1CCC[C@H]1C(=O)O [Captopril]	104 ± 4.8	99.2 ± 1.5
CC1(C)O[C@@H]2C[C@H]3[C@@H]4C[C@H](F)C5=CC(=O)C=C[C@]5(C)[C@H]4[C@@H](O)C[C@]3(C)[C@]2(C(=O)CO)O1 [Flunisolide]	100.5 ± 0.48	96.5 ± 1.3
Cc1c(Nc2ncccc2C(=O)O)cccc1C(F)(F)F [Flunixin meglumine]	84.5 ± 2.9	87.2 ± 3.7
CC[C@H](c1ccc(O)cc1)[C@@H](CC)c1ccc(O)cc1 [Hexestrol]	68 ± 5.1	81.7 ± 3.5
CC(C)(C)NC(=O)[C@H]1CC[C@H]2[C@@H]3CC[C@H]4NC(=O)C=C[C@]4(C)[C@H]3CC[C@]12C [Finasteride]	84 ± 5.9	81.1 ± 2
Nc1nc(N)c2nc(-c3ccccc3)c(N)nc2n1 [Triamterene]	99.1 ± 2.5	98.1 ± 2.8
CCCCOc1ccc(C(=O)CCN2CCCCC2)cc1 [Dyclonine hydrochloride]	93.6 ± 3	98.7 ± 1.6
Cn1nnc2c(C(N)=O)ncn2c1=O [Temozolomide]	102 ± 1.1	102.5 ± 0.94
CC(C)(C)CC(C)(C)c1ccc(OCCOCC[N+](C)(C)Cc2ccccc2)cc1 [Benzethonium chloride]	1.75 ± 0.16	1.78 ± 0.1
CC(C)NCC(O)COc1cccc2[nH]ccc12 (stereo not drawn) [Pindolol]	102 ± 2.2	103 ± 1.5
OC(CCN1CCCC1)(c1ccccc1)C1CCCCC1 (stereo not drawn) [Procyclidine hydrochloride]	97.69 ± 0.79	98.17 ± 0.63
CC(CN(C)C)CN1c2ccccc2CCc2ccccc21 (stereo not drawn) [Trimipramine maleate salt]	92.6 ± 2.7	96.3 ± 2.7
CC(C)C(=O)c1c(C(C)C)nn2ccccc12 [Ibudilast]	72.7 ± 1.6	73.83 ± 0.63
CC12CC3CC(C)(C1)CC(N)(C3)C2 [Memantine Hydrochloride]	99.4 ± 9.8	97.6 ± 6.4
